The source of these data is paper PMC13083723 (Patterns, 2026).

In all, about 5,400 compounds went through this assay and about 190 (3.5%) showed an effect of 50% or more. This is one part of the list.

For this assay, the system named is Vero-E6. In words: primary screen, phospholipidosis by LipidTOX staining; higher = more effect of the substance. To be noted: 10 µM. How it is done:
To measure drug-induced PLD in Vero-E6 cells, we used the HCS LipidTOX Red Phospholipidosis Detection Reagent (Invitrogen, #H34351), which is non-toxic to cell growth and remains well retained after aldehyde fixation. In this setup, compounds (at 10 μM concentration) and controls (amiodarone: 10 μM concentration; DMSO: 0.1 v/v %) were added to clear-bottom, 384-well plates (PhenoPlate 384-well, black, optically clear flat bottom, tissue-culture treated, Revvity #6057302) using the Echo Liquid Handler (Labcyte).
Regarding `Cc1cc(OCCN2CCOCC2)nn1-c1ccc2ccccc2c1`, the result_ITMP was -0.96%.
On to `COc1cc(OC)c2c(=O)[nH]c(-c3cc(C)c(OCCO)c(C)c3)nc2c1`, for which the result_ITMP is -4.9%.
On to `COc1cccc(NC(=O)/C=C/c2ccc(Cl)cc2)c1`, for which the result_ITMP was -3.37%.
As for `O=C1CSC(c2ccccc2Cl)c2cc(Cl)ccc2N1` (centres unmarked), the figure is -3.44%.
Under `CCCn1c(=O)c2nc(C3CCCC3)[nH]c2n(CCC)c1=O` stands 9.14%; under `FC(F)(F)c1ccccc1-n1ccnc1`, -0.85%.
As for `O=C(c1cccc(Cl)c1F)N1CCN(Cc2cccc(Nc3nccs3)n2)CC1`, the figure is 2.88%; as for `CC(C)[C@H]1C(=O)N[C@@H](CCCNC(=N)N)C(=O)NCC(=O)N[C@@H](CC(=O)O)C(=O)N[C@H](Cc2ccccc2)C(=O)N1C`, -13.7%; as for `C[C@@H]1O[C@@H](Oc2c(-c3cc(O)c(O)c(O)c3)oc3cc(O)cc(O)c3c2=O)[C@H](O)[C@H](O)[C@H]1O`, -3.84%.
Regarding `O=C1CN2Cc3c(ccc(Cl)c3Cl)N=C2N1`, the result_ITMP is -4.32%.
As for `COCCN1CCN(Cc2ccc(-c3n[nH]c4c3C(=O)c3c(NC(=O)NN5CCOCC5)cccc3-4)cc2)CC1`, the figure is -0.74%.
Under `CC(CN)CC(=O)O` (centres unmarked) stands -2.76%; under `NC(N)=Nc1nc(CSCC/C(N)=N\S(N)(=O)=O)cs1`, -2.2%; under `CC(C)C[C@H](NC(=O)[C@@H](Cc1c[nH]c2ccccc12)NC(=O)[C@H](Cc1ccc(O)cc1)NC(=O)[C@H](CO)NC(=O)[C@H](Cc1c[nH]c2ccccc12)NC(=O)[C@H](Cc1cnc[nH]1)NC(=O)[C@@H]1CCC(=O)N1)C(=O)N[C@@H](CCCN=C(N)N)C(=O)N1CCC[C@H]1C(=O)NCC(N)=O`, -3.38%.
Under `COC(=O)C1=CCCN(C)C1` stands -1.97%; under `CN(C)Cc1c(C(=O)NCCOc2ccc(C(=O)NO)cc2)oc2ccccc12`, -1.46%.
On to `CC(C)NCC(O)COc1ccc(COCCOC(C)C)cc1` (centres unmarked), for which the result_ITMP was -3.87%.
Consider `C=C(C)[C@@H]1[C@H]2OC(=O)[C@H]1[C@]1(O)C[C@H]3O[C@]34C(=O)O[C@H]2[C@]14C`, for which the result_ITMP is -3.71%.
As for `Fc1ccc(C(OCCN2CCN(CCCc3ccccc3)CC2)c2ccc(F)cc2)cc1`, the figure is 24.8%; as for `Cc1cc(C)c(N(Cc2ccccc2)S(=O)(=O)c2ccc(OCCNC(=O)c3cc4ccccc4o3)cc2)c(C(=O)NO)c1`, -1.97%; as for `CN1CC[C@H](c2c(O)cc(O)c3c(=O)cc(-c4ccccc4Cl)oc23)[C@H](O)C1`, 1.91%.
Under `CC(C)n1nc(C#Cc2ccccc2)c2c(N)ncnc21` stands 1.2%.
Turning to `CC1(CN)Cc2ccccc2C1`, the result_ITMP was determined as 4.65%.
As for `COc1ccc(-c2cc(=O)c3c(O)cc(O)cc3o2)cc1O`, the figure is -2.3%; as for `CC(C)(C)NCC(O)c1cc(Cl)c(N)c(Cl)c1` (centres unmarked), -1.67%.
Take `Nc1nc(Cl)nc2c1ncn2[C@@H]1O[C@H](CO)[C@@H](O)[C@@H]1F`: the result_ITMP is reported as -8.91%.
Under `O=C([O-])C(O)Cc1ccc(O)c(O)c1` (centres unmarked) stands 1.45%.
For `CC(C)C(=O)OCC(=O)[C@@]12O[C@H](C3CCCCC3)O[C@@H]1C[C@H]1[C@@H]3CCC4=CC(=O)C=C[C@]4(C)[C@H]3[C@@H](O)C[C@@]12C`, the result_ITMP is -8.83%.
As to `CCCCCCCCCCCCCCOc1ccc(C(=O)O)o1`, the result_ITMP stood at 0.17%.
As for `OC(c1ccccc1)C1CCN(CCc2ccccc2)CC1` (centres unmarked), the figure is -0.41%; as for `Cc1c[nH]c2ncnc(N3CCC(CN)(C(=O)Nc4cccc(OC(=O)N(C)C)c4)CC3)c12`, -0.8%; as for `CC(C)(C)Sc1c(CC(C)(C)C(=O)O)n(Cc2ccc(Cl)cc2)c2ccc(OCc3ccc4ccccc4n3)cc12`, -0.86%.
Turning to `CN1CCN(c2ccc3nc(-c4ccc5nc(-c6ccc(O)cc6)[nH]c5c4)[nH]c3c2)CC1`, the result_ITMP is listed as -0.53%.
Under `CC(=O)N[C@@H](CC(C)C)C(=O)O` stands -3.92%; under `Nc1nc(=O)c2nc(CNc3ccc(C(=O)N[C@@H](CCC(=O)O)C(=O)O)cc3)cnc2[nH]1`, -2.25%; under `CCn1c(=O)n([C@H]2CCCN(c3nccc(-c4cc5ccccc5o4)n3)C2)c2ccccc21`, -1.15%.
Under `NC[C@@H]1CC[C@@H](N)[C@@H](O[C@H]2[C@H](O)[C@@H](O[C@H]3O[C@H](CO)[C@@H](O)[C@H](N)[C@H]3O)[C@H](N)C[C@@H]2N)O1` stands -7.73%; under `O=C1CCC2CCC(=O)N12`, -3.3%.
On to `CCC(c1ccccc1)c1c(O)c2ccccc2oc1=O` (centres unmarked), for which the result_ITMP is -4.73%.
Under `CC(C)CC(=O)Nc1n[nH]c2c1CN(C(=O)C1CCN(C)CC1)C2(C)C` stands 2.05%; under `O=C(NCCS(=O)(=O)c1ccc(C(F)(F)F)cn1)c1ccc(Cl)cc1`, -0.85%; under `CCCc1ccc(C(=O)O)cc1`, -9.29%.
Under `Nc1nc(F)nc2c1ncn2[C@@H]1O[C@H](CO)[C@@H](O)[C@@H]1O` stands -3.23%.
In the case of `Cc1c(OCC(F)(F)F)ccnc1CS(=O)c1nc2ccccc2[nH]1` (centres unmarked), the result_ITMP is given as -1.32%.
As for `CO/N=C(\C(=O)N[C@@H]1C(=O)N2C(C(=O)OCOC(=O)C(C)(C)C)=C(C)CS[C@H]12)c1csc(N)n1`, the figure is -0.22%; as for `CCc1cccc(N(C)C(=N)Nc2cccc3ccccc23)c1`, 34.8%.
As for `CC(=O)c1cnc2ccc(-c3cc(Cl)c(O)c(Cl)c3)nc2c1N[C@H]1CC[C@H](CN(C)C)CC1`, the figure is -0.83%.
As for `O=C1NC(=O)[C@@]2(CCOc3ccc(F)cc32)N1`, the figure is -0.1%.
As to `N#CC(Cc1ccc(O)cc1)c1ccc(O)cc1` (centres unmarked), the result_ITMP was -1.76%.
Under `C=CC(=O)N1CCN(C(=O)CNc2cc(I)c(Cl)cc2O)CC1` stands 1.66%; under `Oc1ccc(CC2NCCc3cc(O)c(O)cc32)cc1` (centres unmarked), -3.06%.
Consider `Cc1ncc[nH]1`, for which the result_ITMP was 0.94%.
As for `Clc1ccc(C(Cn2ccnc2)OCc2c(Cl)cccc2Cl)c(Cl)c1` (centres unmarked), the result_ITMP was 1.21%.
Under `COc1ccc2cc1Oc1cc3c(cc1OC)CC[N+](C)(C)[C@H]3Cc1ccc(cc1)Oc1c(OC)c(OC)cc3c1[C@@H](C2)[N+](C)(C)CC3` stands -4.69%.
As for `NC(=O)N1c2ccccc2C=Cc2ccccc21`, the figure is -1.44%.
Under `O=c1ncccn1[C@@H]1O[C@H](CO)[C@@H](O)[C@H]1O` stands -5.42%.
